# The full ranking holds about 110,000 compounds; the median of “z-score” is about -0.1, and the highest 2% start at about 2. The list shows a part of the results. Active and inactive are the calls of the source.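 How the source made its calls: active means z-score in the third read window above 3 or below -3; inactive means the rest.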
# Target: Metabotropic glutamate receptor 8 (Rattus norvegicus) (UniProt P70579)
# Test: rat mGluR8 modulators via GIRK flux, primary screen, cell-based, thallium flux, HTS (AID 488969)
# Details: HEK293 rat mGluR8, GIRK (G protein-gated inwardly rectifying potassium channel) thallium flux, FluoZin2; at 10 µM; stronger effect = higher value; submaximal glutamate (EC20) added with thallium
# Sequence of UniProt P70579 (P70579 whole entry, looked up): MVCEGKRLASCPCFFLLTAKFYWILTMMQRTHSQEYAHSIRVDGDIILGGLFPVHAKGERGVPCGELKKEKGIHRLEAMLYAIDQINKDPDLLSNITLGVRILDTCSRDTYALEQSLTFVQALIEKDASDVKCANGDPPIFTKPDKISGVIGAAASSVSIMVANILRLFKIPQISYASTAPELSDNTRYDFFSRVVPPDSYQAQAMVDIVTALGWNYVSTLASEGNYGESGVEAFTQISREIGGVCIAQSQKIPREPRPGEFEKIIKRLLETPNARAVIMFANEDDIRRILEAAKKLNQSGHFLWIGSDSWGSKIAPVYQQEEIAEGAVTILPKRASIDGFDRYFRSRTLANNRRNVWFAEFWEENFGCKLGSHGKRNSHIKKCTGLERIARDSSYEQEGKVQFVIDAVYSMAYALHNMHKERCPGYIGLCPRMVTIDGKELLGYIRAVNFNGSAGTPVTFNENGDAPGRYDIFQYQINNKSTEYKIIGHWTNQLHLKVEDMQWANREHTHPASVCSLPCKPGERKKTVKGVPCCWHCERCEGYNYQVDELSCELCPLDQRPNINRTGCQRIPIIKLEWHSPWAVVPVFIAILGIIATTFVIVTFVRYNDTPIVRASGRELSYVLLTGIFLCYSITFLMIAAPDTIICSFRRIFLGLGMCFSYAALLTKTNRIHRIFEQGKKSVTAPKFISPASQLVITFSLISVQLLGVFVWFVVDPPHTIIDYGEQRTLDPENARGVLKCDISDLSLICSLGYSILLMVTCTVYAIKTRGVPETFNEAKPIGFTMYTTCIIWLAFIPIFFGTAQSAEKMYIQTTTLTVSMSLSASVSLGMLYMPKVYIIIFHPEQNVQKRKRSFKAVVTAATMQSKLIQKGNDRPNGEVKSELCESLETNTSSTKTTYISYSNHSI
row,SMILES,z-score
1,O=Nc1ccc(NOC(=O)c2ccc(Br)cc2)cc1,-0.0144
2,CC(C)n1c(SCC(=O)Nc2ccccc2N2CCCCC2)nc2c1c(=O)n(C)c(=O)n2C,-0.0538
3,O=C(Oc1coc(CSc2ncccn2)cc1=O)c1ccc(Br)o1,-0.395
4,N#CCSc1nnc(Cc2cccs2)n1C1CCCCC1,0.279
5,O=C(c1ccccc1Cl)N1N=C(c2ccc(Br)cc2)CC1c1nc2ccccc2[nH]1 (stereo unspecified),-0.0429
6,O=C(COc1cccc(Cl)c1)Nc1ccc(N2CCOCC2)cc1,-0.304
7,O=C(Cc1cccs1)NCCN1CCOCC1,-0.155
8,CCOC(=O)CC(=O)CSc1nc2ccccc2c(=O)n1-c1ccc(C(=O)NCCOC)cc1,0.691
9,O=C(CSc1nnc(Cc2csc(Nc3cccc(Cl)c3)n2)o1)N1CCc2ccccc21,-0.129
10,CCc1nc(SCC(=O)Nc2sc(C)c(C)c2C(=O)OC)c2ccccc2n1,-0.709
11,CC(=O)N1C(c2ccccc2)CC(=O)OC1c1ccc2c(c1)OCO2 (stereo unspecified),0.47
12,Cc1sc2nc(SCC(=O)c3cc(C)n(CC4CCCO4)c3C)n(C(C)C)c(=O)c2c1C (stereo unspecified),0.26
13,CCCCCC(=O)NC(NC(=S)NC1CCS(=O)(=O)C1)C(Cl)(Cl)Cl (stereo unspecified),0.31
14,COc1ccccc1C(=O)Oc1ccc(C(C)C)cc1,-0.107
15,COc1ccc(N2CCN(C(=O)Cc3nn(C)c(=O)c4ccccc34)CC2)cc1,-0.144
16,CCOC(=O)c1sc(-c2ccc(OC)cc2)cc1N,-0.101
17,COc1ccc(C2=NOC(C(=O)O)C2)cc1 (stereo unspecified),0.193
18,CC(=O)Nc1ccc2c(c1)OCCOCCOc1cc(NC(C)=O)ccc1OCCOCCOCCO2,-0.78
19,COCCNC(=O)c1ccc(NC(C)=O)cc1,-0.165
20,CCOC(=O)Cc1csc(N/N=C/c2ccc(C(F)(F)F)cc2)n1,-0.035
21,CCN(CC)CCN1C(=O)C(O)=C(C(=O)c2ccco2)C1c1ccccn1 (stereo unspecified),-0.137
22,O=C(CCN1C(=O)COc2ccccc21)NCCN1CCc2ccccc2C1,-0.306
23,Cc1ccc(-c2noc(C3CCCCC3)n2)cc1,0.968

row,SMILES,z-score
1,CCC(=O)OCCNc1cc(SCCC(=O)OC)c2nonc2c1[N+](=O)[O-],-0.319
2,O=C(Nc1ccon1)c1cc2c(s1)CCCC2,-0.236
3,O=C(Cn1cnc2ccccc21)N/N=C/c1ccccn1,0.141
4,Cc1cc2cc(CCNS(C)(=O)=O)c(=O)[nH]c2cc1C,-0.359
5,c1ccc(-n2nnnc2-n2cnc3ccccc32)cc1,-0.142
6,COc1cccc(/C=N/NC(=O)c2ccc(=O)n(C)c2)c1O,-0.083
7,CCn1c2ccccc2c2cc(NC(=O)C(C)Oc3ccccc3)ccc21 (stereo unspecified),-0.0626
8,O=C(OCc1ccccc1)C1=NNC2C(=O)N(c3ccccc3)C(=O)C12 (stereo unspecified),0.112
9,O=C(Cc1ccccc1)NC(NC(=S)Nc1cc(Cl)ccc1Cl)C(Cl)(Cl)Cl (stereo unspecified),-0.195
10,Cc1cc2ccccc2n1CCNC(=O)c1ccc(S(=O)(=O)N2CCCCC2)cc1,1.13
11,CC(=O)C1=C(O)C(=O)N(Cc2cccnc2)C1c1ccc(C)cc1 (stereo unspecified),0.0739
12,C=CCSC1=C(C#N)C(c2ccccc2)CC(=O)N1 (stereo unspecified),-0.258
13,CCOC(=O)N1CCN(c2nc3ccccc3nc2C(C#N)S(=O)(=O)c2ccc(C)cc2)CC1 (stereo unspecified),-0.937
14,COc1ccccc1CNC(=O)C1CC(c2ccc([N+](=O)[O-])cc2)=NO1 (stereo unspecified),-0.0054
15,O=C(NCCO)c1ccc(-c2nnc(N3CCOCC3)c3ccccc23)cc1,-0.293
16,CC1=NN(C(=S)Nc2ccccc2)C(c2ccccc2)C1 (stereo unspecified),0.129
17,S=c1[nH]nc(-c2ccc(Cl)cc2)n1Cc1ccccc1,0.351
18,CC(NC(=O)c1ccc(N(C)C)cc1)C1CC2CCC1C2 (stereo unspecified),-0.166
19,Cc1ccc(-n2nc(CN3CCOCC3)c(-c3ccccc3)c2N)c(C)c1,-0.0359
20,O=C(Nc1ccc2c(c1)OCCO2)c1cccc2nc3ccccc3nc12,-0.26
21,CC(C(=O)NCc1ccccc1)N1C(=O)CN(C)C(=O)c2ccccc21 (stereo unspecified),-0.0841
22,O=C(c1ccco1)N1CCN(C(=O)C2CCCN(S(=O)(=O)Cc3ccccc3)C2)CC1 (stereo unspecified),0.318
23,O=C(CCCc1cccs1)Nc1nc2c(s1)CCCC2,-0.0904

row,SMILES,z-score
1,CC(C)(C)c1ccc(S(=O)(=O)NC(Cc2ccccc2)C(=O)O)cc1 (stereo unspecified),0.161
2,C=CCn1c(SCc2csc(C)n2)nc2sc3c(c2c1=O)CCC(C)C3 (stereo unspecified),-0.156
3,CSc1ccccc1NC(=O)Cn1c(-c2cscn2)nc2ccccc21,-0.447
4,COc1ccc(CCNC(=O)C2CC(c3c(Cl)cccc3Cl)=NO2)cc1 (stereo unspecified),-0.318
5,O=C(Nc1ccccc1-c1nnn(CC(=O)N2CCCc3ccccc32)n1)c1ccc(Cl)cc1,-0.222
6,Cc1ccccc1-n1c(SCC(=O)Nc2ccc3c(c2)OCO3)nnc1-c1ccccn1,-0.56
7,CC(C)(C)n1nc(-c2ccc(Cl)cc2)c2c(N)ncnc21,-0.248
8,NC(=O)c1c(NC(=O)C2c3ccccc3Oc3ccccc32)sc2c1CCCCC2,-0.11
9,Cc1nc2nc[nH]n2c(=O)c1CC(=O)O,-0.46
10,CCCOc1ccc(C2/C(=C(/O)c3ccc(F)cc3)C(=O)C(=O)N2CCCN(C)C)cc1 (stereo unspecified),0.269
11,Cc1cccc(NCc2cc(Cl)cc(Cl)c2O)n1,-0.205
12,CN(C)c1ccc(N=Nc2ccccc2C(=O)OCC(=O)NC2CCCC2)cc1,-0.235
13,COc1ccccc1NCCC(=O)OCC(=O)NC1CCCCC1,0.0617
14,Cc1ccc(NC(=O)Nc2ccc(C(=O)N3CCOCC3)cc2)cc1,0.492
15,Nc1nonc1-c1noc(N2CCCCC2)n1,0.26
16,COc1cc2c(cc1OC)CN(CC(=O)NC(=O)NCc1ccco1)CC2,0.468
17,Cc1nc(C)c(-c2csc(Nc3cccnc3)n2)s1,-0.44
18,Cc1ccc(S(=O)(=O)N2CCN(C3CC(=O)N(Cc4ccccc4)C3=O)CC2)cc1C (stereo unspecified),-0.767
19,COC(=O)C1=C(C)NC(C)=C(C(=O)OC)C1c1cc2cc(C)ccc2[nH]c1=O,0.059
20,CC(=O)Nc1ccc(Oc2cc(C#N)c(C#N)cc2N2CCOCC2)cc1,0.123
21,COc1cccc(CNC(=O)CSCc2cnn(-c3ccccc3)c2-n2cccc2)c1OC,0.523
22,COc1ccc(C(=O)NC(=S)NC(C)C)cc1Br,1.79
23,CCCc1nc2ccccc2c(C(=O)OCC(=O)NCc2ccco2)c1CC,-0.557

row,SMILES,z-score
1,COc1cc(-c2nc(S(=O)(=O)c3ccccc3)c(N3CCOCC3)o2)cc(OC)c1OC,0.0345
2,Oc1ccc(/C=N/Nc2nccnc2Cl)cc1,0.0312
3,COc1cccc(Nc2nc(NCCO)c3ccccc3n2)c1,-0.496
4,CCC(SCC(=O)OC)C(=O)Nc1nnc(C(C)C)s1 (stereo unspecified),-0.478
5,CCCN(Cc1cc2ccc(C)cc2[nH]c1=O)S(=O)(=O)c1ccccc1,0.0039
6,Cc1ccc(C)c(N2C(=O)CN=C2Nc2ccccc2Cl)c1,-0.307
7,CCOc1cc(CNn2cnnc2)ccc1OCC(=O)NC1CCCCC1,-0.0663
8,Cc1cccc(NC2=NCC(=O)N2Cc2ccccc2)c1,-0.249
9,CCCCSc1nc(C)cc(NC(=S)Nc2ccc(OC)cc2)n1,1.27
10,O=C(CN1CCN(Cc2ccccc2)CC1)c1ccccc1,-1.02
11,CCn1nc2cc(C(=O)NCC34CC5CC(CC(C5)C3)C4)ccc2c1OC,-0.258
12,CC1(C)CC(=O)C2=C(C1)N(C1CCCCC1)C(=O)C2(O)C(F)(F)F (stereo unspecified),-0.133
13,COCCNC(=O)COc1ccc(Br)cc1Cl,-0.00967
14,CCCN1CCN(C(=O)c2cccc3c2C(=O)N(CCOC)C3)CC1,-0.608
15,CCCCNC(=O)NNC(=O)COc1cc(C)cc(C)c1,-0.202
16,CCOc1cc(/C=N/n2cnnc2)cc(Br)c1O,0.377
17,COc1ccc(C(=O)N(C)Cc2ccccc2)cc1Br,-0.329
18,c1cncc(-c2noc(C34CC5CC(CC(C5)C3)C4)n2)c1,0.166
19,Cc1c(NC(=O)c2ccc3c(c2)OCO3)cccc1-c1nc2ccccc2s1,-0.296
20,CCn1c(Cn2nnc(-c3ccccc3)n2)nnc1SCc1ccc(Cl)c(Cl)c1,-0.359
21,Cc1ccc(S(=O)(=O)CCC(=O)N2CCN(c3ccc(Cl)cc3)CC2)cc1,-0.426
22,CCc1nnc(NS(=O)(=O)c2ccc(NC(=S)NC(=O)c3ccc(OC)c(OC)c3)cc2)s1,-0.423
23,CCOC(=O)c1sc(NC(=O)c2ccncc2)nc1C,-0.254

row,SMILES,z-score
1,COc1cccc(CNC(=O)c2ccc(S(=O)(=O)N3CCCC3)cc2)c1,-0.159
2,O=C(Cn1nnc(-c2ccncc2)n1)N1CCc2ccccc21,1.39
3,c1ccc(-n2c(SCc3ccncc3)nnc2-c2ccco2)cc1,-1.1
4,CCOc1ccc(-c2noc(CCCC(N)=O)n2)cc1OC,-0.356
5,CC1(C)CC(N(Cc2ccco2)C(=O)Cc2ccccc2)CCO1 (stereo unspecified),0.681
6,CC(Oc1ccccc1)C(=O)Nc1cccc(-c2nc3ccccc3[nH]2)c1 (stereo unspecified),-0.367
7,N#CCCCCn1c(-c2cncs2)nc2ccccc21,0.399
8,O=C1CCCC(=O)C1=Cc1c[nH]c2ccccc12,-1.69
9,CCc1nccn1S(=O)(=O)c1ccc(C)c(C)c1,-0.0208
10,CCOc1ccc(C2C3=C(Nc4nc(N)[nH]c(=O)c42)c2ccccc2C3=O)cc1 (stereo unspecified),-0.168
11,Cc1ccc(S(=O)(=O)CNC(=S)c2ccc3ccccc3c2)cc1,-0.134
12,COc1ccc(-c2noc(CCC(=O)NCc3cc(Br)ccc3OC)n2)cc1,1.13
13,CCN1CCN(CC(=O)Nc2ccc3c(c2)OCCO3)C(=O)C1=O,0.232
14,CCn1c(Cc2c(C)[nH]c3ccccc23)nnc1SCC(=O)NCc1ccco1,-0.0935
15,COc1cccc(/C(O)=C2/C(=O)C(=O)N(c3ccccn3)C2c2ccc(OC)c(OC)c2)c1 (stereo unspecified),-0.205
16,CS(=O)(=O)N(Cc1ccc(Cl)cc1)c1ccc(C(=O)NCCC2=CCCCC2)cc1,0.108
17,CCCCC(c1nnnn1Cc1ccco1)N1CCN(C(=O)c2ccco2)CC1 (stereo unspecified),0.0939
18,Cc1cc(C)nc(SCc2cc(=O)c(OC(=O)c3ccco3)co2)n1,-0.383
19,CCOCc1c(C(=O)OCC(=O)Nc2ccc(C)c(S(=O)(=O)N(C)C)c2)oc2ccccc12,active: 9.51
